Results are given in words; binding and its absence hold for the method and conditions named. Binding seen in cells or lysates may run through a third protein. Some results given as binding are weak or reduced against the parent protein; the word gives no strength. For part of these data: Sequences can lack the tags named with a protein.
T1: HA-Rab12 (wild type) (human) (UniProt Q6IQ22)
T1 sequence: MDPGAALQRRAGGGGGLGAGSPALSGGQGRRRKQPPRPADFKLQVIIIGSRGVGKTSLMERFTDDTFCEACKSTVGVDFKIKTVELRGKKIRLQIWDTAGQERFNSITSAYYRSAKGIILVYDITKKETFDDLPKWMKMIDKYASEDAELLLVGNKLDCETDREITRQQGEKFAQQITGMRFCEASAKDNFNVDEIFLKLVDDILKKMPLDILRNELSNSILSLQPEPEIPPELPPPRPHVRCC

By UniProt entry, the sequences of proteins in these tests, tags left out. Where a name states a change or a piece, a line headed by the entry shows the natural chain unless it says otherwise.
UniProt P61006: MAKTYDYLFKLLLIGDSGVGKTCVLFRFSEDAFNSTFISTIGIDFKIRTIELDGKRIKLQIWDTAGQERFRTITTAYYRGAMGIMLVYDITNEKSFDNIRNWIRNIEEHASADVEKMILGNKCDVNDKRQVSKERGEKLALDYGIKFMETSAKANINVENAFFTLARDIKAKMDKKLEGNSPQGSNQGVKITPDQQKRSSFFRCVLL
UniProt P61026: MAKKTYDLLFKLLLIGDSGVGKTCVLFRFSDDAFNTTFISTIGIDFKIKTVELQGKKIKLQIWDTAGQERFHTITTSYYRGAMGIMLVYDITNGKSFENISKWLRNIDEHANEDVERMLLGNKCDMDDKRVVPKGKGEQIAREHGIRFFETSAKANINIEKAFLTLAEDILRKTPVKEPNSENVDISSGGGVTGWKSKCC

T2: HA-Rab12 S106E (human) (UniProt Q6IQ22)
T2 sequence: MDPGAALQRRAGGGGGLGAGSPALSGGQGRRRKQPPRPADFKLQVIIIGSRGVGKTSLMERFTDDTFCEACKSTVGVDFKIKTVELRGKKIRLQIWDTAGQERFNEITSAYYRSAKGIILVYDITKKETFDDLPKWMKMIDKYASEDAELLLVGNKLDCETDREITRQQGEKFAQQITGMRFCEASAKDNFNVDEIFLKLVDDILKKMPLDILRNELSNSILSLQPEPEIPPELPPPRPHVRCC

T3: HA-Rab12 S106A (human) (UniProt Q6IQ22)
T3 sequence: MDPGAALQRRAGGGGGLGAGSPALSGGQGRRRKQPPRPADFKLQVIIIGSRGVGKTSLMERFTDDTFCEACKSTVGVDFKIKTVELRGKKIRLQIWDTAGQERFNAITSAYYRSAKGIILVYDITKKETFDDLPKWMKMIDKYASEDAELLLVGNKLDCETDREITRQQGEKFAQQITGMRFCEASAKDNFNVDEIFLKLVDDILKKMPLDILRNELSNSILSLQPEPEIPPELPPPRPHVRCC


What was measured:
Assay in all cases: co-IP; HA-Rab constructs expressed in HEK293; lysates incubated with HA-agarose for 1 hr, washed with PBS; western blotting (anti-GDI1/2); in Figure 6C-F different LRRK2 versions were co-expressed
[1] = biological target: T1, HA-Rab12 (wild type) (human)
HA-Rab8a (wild type) = HA-Rab8a (wild type) (UniProt P61006)
HA-Rab10 T73E = HA-Rab10 T73E (UniProt P61026)
HA-Rab10 T73A = HA-Rab10 T73A (UniProt P61026)
HA-Rab12 S106E (human) = biological target: T2, HA-Rab12 S106E (human)
HA-Rab12 S106A (human) = biological target: T3, HA-Rab12 S106A (human)

| binding [1] | binding (HA-Rab8a (wild type)) | binding (HA-Rab10 T73E) | binding (HA-Rab10 T73A) | binding (HA-Rab12 S106E (human)) | binding (HA-Rab12 S106A (human)) | Binder |
| --- | --- | --- | --- | --- | --- | --- |
| binds | binds | no binding | binds | no binding | binds | Rab GDP dissociation inhibitor β (GDI2) (protein, UniProt P50395 1-445) MNEEYDVIVLGTGLTECILSGIMSVNGKKVLHMDRNPYYGGESASITPLEDLYKRFKIPGSPPESMGRGRDWNVDLIPKFLMANGQLVKMLLYTEVTRYLDFKVTEGSFVYKGGKIYKVPSTEAEALASSLMGLFEKRRFRKFLVYVANFDEKDPRTFEGIDPKKTTMRDVYKKFDLGQDVIDFTGHALALYRTDDYLDQPCYETINRIKLYSESLARYGKSPYLYPLYGLGELPQGFARLSAIYGGTYMLNKPIEEIIVQNGKVIGVKSEGEIARCKQLICDPSYVKDRVEKVGQVIRVICILSHPIKNTNDANSCQIIIPQNQVNRKSDIYVCMISFAHNVAAQGKYIAIVSTTVETKEPEKEIRPALELLEPIEQKFVSISDLLVPKDLGTESQIFISRTYDATTHFETTCDDIKNIYKRMTGSEFDFEEMKRKKNDIYGED |
| binds | binds | no binding | binds | no binding | binds | Rab GDP dissociation inhibitor α (GDI1) (protein, UniProt P31150 1-447) MDEEYDVIVLGTGLTECILSGIMSVNGKKVLHMDRNPYYGGESSSITPLEELYKRFQLLEGPPESMGRGRDWNVDLIPKFLMANGQLVKMLLYTEVTRYLDFKVVEGSFVYKGGKIYKVPSTETEALASNLMGMFEKRRFRKFLVFVANFDENDPKTFEGVDPQTTSMRDVYRKFDLGQDVIDFTGHALALYRTDDYLDQPCLETVNRIKLYSESLARYGKSPYLYPLYGLGELPQGFARLSAIYGGTYMLNKPVDDIIMENGKVVGVKSEGEVARCKQLICDPSYIPDRVRKAGQVIRIICILSHPIKNTNDANSCQIIIPQNQVNRKSDIYVCMISYAHNVAAQGKYIAIASTTVETTDPEKEVEPALELLEPIDQKFVAISDLYEPIDDGCESQVFCSCSYDATTHFETTCNDIKDIYKRMAGTAFDFENMKRKQNDVFGEAEQ |

Reference: publication PMC4769169 (eLife, 2016)
